Source: ChEMBL document CHEMBL4888484, “Replenishing the malaria drug discovery pipeline: Screening and hit evaluation of the MMV Hit Generation Library 1 (HGL1) against asexual blood stage Plasmodium falciparum ,using a nano luciferase reporter read-out” (2022)
The campaign covered roughly 150,000 compounds. About 540 (0.36%) showed an effect of 50% or more. Some of the results follow.

tested on: Plasmodium falciparum; assay: Primary screen in NF54 nanoGlo assay, in single point, at 2uM, 72h; a lower Z score goes with more inhibition; assay type: functional, Erythrocyte; conditions: timepoint 72 hour

Row | SMILES | % Inhibition [%] | Z score
1 | Cc1cc(CNC[C@@H](O)c2ccc(C(F)(F)F)cc2)cc(C)n1 | 6 | -1.15
2 | CNc1nc(-c2ccc(C(=O)NC3(C(N)=O)CCCC3)cc2)ncc1F | -9 | 0.82
3 | FC(F)(F)c1cc2c(N3CCC[C@H]3c3cccnc3)nccn2n1 | -7 | 0.99
4 | Cc1cccn2cc(C(=O)N3CCC4(CC3)CNC(=O)C4)cc12 | -2 | 0.37
5 | CC(C)[C@H](N)C(=O)N1CCCC(Oc2ccc(Cl)cn2)C1 (some centres undefined) | -12 | 1.47
6 | O=C(Nc1ccccc1F)C1CCN(c2cc(C3CC3)ncn2)CC1 | -16 | 3.11
7 | CCN(CC)C(=O)c1cc2c(n1C)CCN(Cc1cccc(C)c1)C2 | -7 | 1.26
8 | Cc1ccc(S(=O)(=O)[C@H]2CS(=O)(=O)C[C@@H]2NCC(C)C)cc1 | 4 | -0.46
9 | CC1(C)CN(c2nccc(N3CCN[C@@H]4CS(=O)(=O)C[C@@H]43)n2)CCO1 | -3 | 0.39
10 | Cc1csc([C@@H]2CN(c3cc(C(C)C)nc4ncnn34)CCO2)n1 | -1 | 0.15
11 | C[C@@H](CONS(=O)(=O)c1ccc2ccccc2c1)NC(=O)OC(C)(C)C | -8 | 1.41
12 | O=C(CN1CCN(CC(=O)N2CCN(S(=O)(=O)c3ccc(F)c(F)c3)CC2)CC1)N1CCCC1 | -10 | 0.88
13 | CCN(CCN1CCCCCC1)Cc1cscn1 | -14 | 1.99
14 | Oc1nc(-c2ccc(F)cc2)cc(C(F)F)n1 | -13 | 2.44
15 | CC(Cn1cccn1)NC(=O)C1=NN(c2ccccc2)C(C(N)=O)C1 (centres undefined) | -5 | 0.64
16 | COc1ccc(CN(CCc2c[nH]c3ccccc23)C(=O)CN(C(=O)c2ccccc2C)C(C)C)cc1OC | -16 | 2.33
17 | CCc1ccc(C(C)NC(CC)c2c(C)nn(C)c2C)o1 (centres undefined) | 3 | -0.39
18 | CN(CC(=O)NCCC#N)Cc1ccco1 | -8 | 1.12
19 | Clc1ccsc1CN1CCC[C@H](CN2CCOCC2)C1 | -11 | 1.22
20 | Cc1cccnc1C(NCC(=O)N1CC(C)OC(C)C1)C(C)C (centres undefined) | -9 | 0.87
21 | C=CCNC(=O)[C@H]1CCCN(C(=O)Nc2ccc(NC(=O)Nc3ccc(C)cc3C)cc2)C1 | -7 | 0.95

Row | SMILES | % Inhibition [%] | Z score
22 | CN(C)c1ccc2nnc(CNc3ccc(C(F)(F)F)nn3)n2n1 | -8 | 1.43
23 | Cc1cccnc1[C@H](C)NC(=O)N1CCOCC1 | -15 | 2.76
24 | COCCOc1ccnc(-c2noc([C@@H]3CCCN3Cc3cn(C)c4ccccc34)n2)c1 | 15 | -1.75
25 | CN(CCc1cn[nH]c1)c1nc2nonc2nc1N1CCCCC1 | -12 | 1.37
26 | CNC(=O)Nc1cc2c(cc1N1CCCC1)n(C)c(=O)n2C | -8 | 1.49
27 | Cc1noc(CNC(=O)C2(c3ccc(Cl)c(Cl)c3)CCC2)n1 | 13 | -1.66
28 | Cc1cccc(-n2nc(C)c3c(NC4CCC(NC(=O)C5CCCC5)CC4)nc(C)nc32)c1 (centres undefined) | 7 | -0.98
29 | COc1nc2c(cc1CNC(=O)c1ccc(=O)[nH]n1)C(=O)N(C1CCCC1)C2 | 11 | -1.46
30 | CN1CCO[C@H](C(=O)Nc2ccccc2Nc2ccncc2)C1 | -9 | 1.72
31 | CCO[C@H]1COC[C@@H]1NC(=O)CN1CCCCC1=O | -4 | 0.6
32 | O=C(c1ccccc1Cn1ccnn1)N1CCC[C@@H]2COC[C@@H]21 | -19 | 2.02
33 | Cc1nn(CCc2nnc(-c3cc4nc(C5CC5)cc(C(F)F)n4n3)o2)c(C)c1Br | 28 | -3.77
34 | COC(=O)C1(N(C)Cc2cnn(C)c2)CCCCC1 | -4 | 0.47
35 | C[C@H](NC(=O)CCCN1CCCC1=O)C(F)(F)F | -23 | 1.99
36 | O=C([C@@H]1CCCCN1S(=O)(=O)c1cc(F)ccc1F)N1CCCC1 | 3 | -0.61
37 | Cn1cc(C(N[C@@H]2C=C[C@H](CO)C2)c2cccc(F)c2)cn1 (some centres undefined) | -13 | 1.78
38 | Cc1nc(C=Cc2nc([C@@H]3CCCCCN3)no2)cs1 | 5 | -0.51
39 | Cc1cccc(NC(=O)C(=O)N(C)[C@@H](C)CC#N)c1C#N | -12 | 1.44
40 | O=C(Nc1cccnc1)c1c2c(nc3ccccc13)C(=O)N(C1CCCCC1)C2 | -7 | 0.72
41 | CC(C)c1nc(CN2CCNC(=O)[C@@H]2Cc2ccccc2)co1 | -16 | 1.59
42 | O=C(NCc1cccnc1-n1ccnc1)c1ccc2[nH]c(=O)[nH]c2n1 | 0 | 0.08
